Measured values reported in the supplement of paper PMC7125110.
± gives the standard error. This sample is rich in variants without activity.

B1: glmS ribozyme (parent)
chain: AUAAAAGCGCCAGAACUACAGAAAUGUAGUUGACGAGGAGGAGGUUUAUCGAAUUUUCGGCGGAUGCCUCCAAA

Key:
Conditions in all cases: with glucosamine-6-phosphate
[1] = variants of: B1; test: self-cleavage kobs at 40 uM GlcN6P; higher = faster cleavage; RNA array
Method in brief: (§1)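 On sequenced MiSeq chips, barcoded ribozyme variants were made in situ by E. coli RNA polymerase and followed at 37 °C through a hybridised Cy3 probe. Glucosamine-6-phosphate was flowed in at 40 μM to 10 mM in HEPES/KCl/Mg(OAc)2 buffer. Exponential fits to normalised per-tile medians gave kobs, and weighted Michaelis–Menten fits gave kcat and KM.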

[2] = variants of: B1; test: self-cleavage kobs at 640 uM GlcN6P; higher = faster cleavage; RNA array
Method in brief: as §1

[3] = variants of: B1; test: self-cleavage kobs at 2500 uM GlcN6P; higher = faster cleavage; RNA array
Method in brief: as §1

[4] = variants of: B1; test: self-cleavage kobs at 160 uM GlcN6P; higher = faster cleavage; RNA array
Method in brief: as §1

[5] = variants of: B1; test: self-cleavage kobs at 10000 uM GlcN6P; higher = faster cleavage; RNA array
Method in brief: as §1

Variant | self-cleavage kobs at 40 uM GlcN6P [1] [s⁻¹] | self-cleavage kobs at 640 uM GlcN6P [2] [s⁻¹] | self-cleavage kobs at 2500 uM GlcN6P [3] [s⁻¹] | self-cleavage kobs at 160 uM GlcN6P [4] [s⁻¹] | self-cleavage kobs at 10000 uM GlcN6P [5] [s⁻¹]
AUAAAAGCGCCAGAACUACAGAAAUGUAGCUGUCGAGGAGGAGGGUUAUCGGAUUUUCGGCGGAUGCCUCCAAA | < 1e-05 |  |  |  | 
AUAAAAGCGCCAGAACUACAGAAAUGUAGAUGACGAGGUGGAGGUUUAUCGAAUUUUCGGCGUAUGCCUCCAAA | < 1e-05 | < 1e-05 | < 1e-05 |  | 
AUAAAAGCGCCAGAACUACAGAAAUGUAGCUGCCGAGGAGGAGGUUUAUCGAAUUUUCGGCGGAUGCCUCCAAA | < 1e-05 | < 1e-05 |  | < 1e-05 | 
AUAAAAGCGCCAGAACUACAGAAAUGUAGAUGACUAGGAGGAGGUUUAUCGAAUUUUCGGCGGAUGCCUCAAAA | < 1e-05 |  |  |  | 
AUAAAAGCGCCAGAACUACAGAAAUGUAGAUGACGAGGAGGAAGUUUAUCGCAUCUUCGGCGGAUGCCUUCAAA | < 1e-05 |  | < 1e-05 |  | 
AUAAAAGCGCCAGAACUACAGAAAUGUAGAUGACGAGGAGGAGGUUUAUCGAAUUUUCGGCCGAUGCCUCCAAA | < 1e-05 | < 1e-05 |  | < 1e-05 | < 1e-05
AUAAAAGCGCCAGAACUACAGAAAUGUAGAUGACGAGGAGGAGGUUUAUCGUAAUUUCGGCGGAUGCCUCAAAA | < 1e-05 |  |  |  | 
AUAAAAGCGCCAGAACUACAGAAAUGUAGAUGACGAGGAGGCGGUUUAUCGAUUUUUCGGCGGAUGACUCCAAA | < 1e-05 |  |  |  | 
AUAAAAGCGCCAGAACUACAGAAAUGUAGCUGACGAGGAGGAGGUUUAUCGCAUUUUCGGCGGCUGCCUCCAAA | < 1e-05 |  |  |  | 
AUAAAAGCGCCAGAACUACAGAAAUGUAGCUGACGCGCAGGAGGUUUAUCGAAUUUUCGGCGGAUGCCUCCAAA | < 1e-05 |  |  |  | 
AUAAAAGCGCCAGAACUACAGAAAUGUAGCUGACGAGGAGGAGGUUUUUCGAAUUUGCGGCGGAUGGAUCCAAA | < 1e-05 |  |  |  | 
AUAAAAGCGCCAGAACUACAGAAAUGUAGAUGACGAGGAGGGGGUUUAUCGAAUUUUCGGCGGAUGCCUCCAAA | 0.000294 ± 7.3e-05 | 0.0017 ± 0.00047 |  |  | 0.0172 ± 0.0059
AUAAAAGCGCCAGAACUACAGAAAUGUAGCUGACGAGGAGGAGGUUUAUCGAAUUUUCGGCGGAUGCCUCCAAA | < 1e-05 | 0.000113 ± 2e-06 | 0.000759 ± 0.00027 | 4.18e-05 ± 1.9e-06 | 0.000395 ± 6.5e-06
AUAAAAGCGCCAGAACUACAGAAAUGUAGAUAACGAGGAGGAGCUUUAUCGAAUUUUCGGCGGAUGCCUCCAAA | < 1e-05 |  |  |  | 
AUAAAAGCGCCAGAACUACAGAAAUGUAGAUGACGAGGAGGCGGUUUAUAGAAUUUUCGGCGGAUGCCUCCAAA | < 1e-05 | < 1e-05 | < 1e-05 |  | 
AUAAAAGCGCCAGAACUACAGAAAUGUAGCUGACGAGGAGGAGGUUUAUCGCAUUUUCGGCGGAUGCCUCCAAA | < 1e-05 | < 1e-05 | < 1e-05 |  | 
AUAAAAGCGCCAGAACUACAGAAAUGUAGCUGACGAGGAGGAGGUUUGUCGAAUUUUCGGCGGAUGCCUCCAAA | < 1e-05 |  |  | < 1e-05 | < 1e-05

Variant | self-cleavage kobs at 40 uM GlcN6P [1] [s⁻¹] | self-cleavage kobs at 640 uM GlcN6P [2] [s⁻¹] | self-cleavage kobs at 2500 uM GlcN6P [3] [s⁻¹] | self-cleavage kobs at 160 uM GlcN6P [4] [s⁻¹] | self-cleavage kobs at 10000 uM GlcN6P [5] [s⁻¹]
AUAAAAGCGCCAGAACUACAGAAAUGUAGAUGACGAGGAGGAGGUUUAUCGAAUUUUGGGCGGAUGCCUCCAAA | < 1e-05 |  |  |  | 
AUAAAAGCGCCAGAACUACAGAAAUGUAGAUGUCGAGGAGGAGGUUUAUCGAAUUUUCGGCGGAUGCCUUCAAA | < 1e-05 |  |  |  | 
AUAAAAGCGCCAGAACUACAGAAAUGUAGCUGACGAGGAGGAGGUUUAUCGAAUUUUCGGCGGCUGCCUCCAAA | < 1e-05 | < 1e-05 |  |  | 
AUAAAAGCGCCAGAACUACAGAAAUGUAGCUGACGAGGAGGAGGUUUAUCGAAUUUUCGGCGGUUGCCUCCAAA | < 1e-05 | < 1e-05 |  | < 1e-05 | 
AUAAAAGCGCCAGAACUACAGAAAUGUAGAUGACGAGGAGGAGGUUUAUCGAAUAUUCGGAGGAUGCCUCCAAA | < 1e-05 |  | < 1e-05 |  | 
AUAAAAGCGCCAGAACUACAGAAAUGUAGAUGACGAGGAGGAGGUUUAUCGAAUUUUCGGCGGAUGCCUUCAAA | 0.000214 ± 3.6e-05 | 0.000765 ± 0.00011 | 0.00125 ± 0.00027 | 0.000386 ± 7.4e-05 | 0.00358 ± 0.00063
AUAAAAGCGCCAGAACUACAGAAAUGUAGCUGACGAGGCGGAGGUUAAUCGAAUUUUCCGCGGAUGCCUCCAAA | < 1e-05 |  |  |  | < 1e-05
AUAAAAGCGCCAGAACUACAGAAAUGUAGAUGUGGAAGAGGAGGUUUAUCGAAUUUUCGGCGGAUGCCUCCAAA | < 1e-05 |  |  |  | 
AUAAAAGCGCCAGAACUACAGAAAUGUAGAUGACGAGGAGGAGGUUGAUCGAAUUUUCGGCGGAUGCCUCCAAA | 7.81e-05 ± 2.4e-05 | 0.000406 ± 8.6e-05 | 0.000481 ± 0.00024 |  | 0.00109 ± 0.00021
AUAAAAGCGCCAGAACUACAGAAAUGUAGAUGACGAGGAGGAGGUUUAUCGAAUUUUCGGGGCAUGCCUCCAAA | < 1e-05 |  |  |  | 
AUAAAAGCGCCAGAACUACAGAAAUGUAGAUGACGAGGAGGAGGUUUAUUGAAUUUUCGGCGGAUGCCUCCAAA | < 1e-05 |  |  |  | 
AUAAAAGCGCCAGAACUACAGAAAUGUAGAUGACGAGGAGGAGGUUUAUGGAAUUUUCGGCGGAUGCCUCCAAA | 3.17e-05 ± 1.5e-05 | 0.00128 ± 0.0005 | 6.93e-05 ± 1.6e-05 | 6.28e-05 ± 1.6e-05 | 
AUAAAAGCGCCAGAACUACAGAAAUGUAGAUGUCGAGGAGUAGGUUUAUCGGAUUUUCGGCGGAUGCCUCCAAA | < 1e-05 |  | < 1e-05 |  | 
AUAAAAGCGCCAGAACUACAGAAAUGUAGCUGACGAGGCGUAGGUUUAUCGAAUUUUCGGCGGAUGCCUCCAAA | < 1e-05 |  |  |  | < 1e-05
AUAAAAGCGCCAGAACUACAGAAAUGUAGAUGACUAGGAGGAGGUUUAUCGAAUUUUCGGCGGAUGCCUCCAAA | < 1e-05 | < 1e-05 | < 1e-05 | < 1e-05 | < 1e-05
AUAAAAGCGCCAGAACUACAGAAAUGUAGAUGACGAGGAGGAGGUGUAUCGAAUUUUCGGCGGAUGCCUCCAAA | 4.09e-05 ± 1.5e-05 |  | 0.000638 ± 0.00022 |  | 0.000702 ± 8.5e-05
